Test results reported in PubChem BioAssay AID488969 (Vanderbilt High Throughput Screening Facility, 2010).
The full ranking holds about 110,000 compounds; the median of “z-score” is about -0.1, and the highest 2% start at about 2. The list shows a part of the results. Calls of active or inactive are those of the source.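 How the source made its calls: active means z-score in the third read window above 3 or below -3; inactive means the rest.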

Molecular target: Metabotropic glutamate receptor 8 (Rattus norvegicus) (UniProt P70579)
Assay: rat mGluR8 modulators via GIRK flux, primary screen, cell-based, thallium flux, HTS (AID 488969)
Conditions: HEK293 rat mGluR8, GIRK (G protein-gated inwardly rectifying potassium channel) thallium flux, FluoZin2; at 10 µM; stronger effect = higher value; submaximal glutamate (EC20) added with thallium

Chain of UniProt P70579 (P70579 whole entry, looked up): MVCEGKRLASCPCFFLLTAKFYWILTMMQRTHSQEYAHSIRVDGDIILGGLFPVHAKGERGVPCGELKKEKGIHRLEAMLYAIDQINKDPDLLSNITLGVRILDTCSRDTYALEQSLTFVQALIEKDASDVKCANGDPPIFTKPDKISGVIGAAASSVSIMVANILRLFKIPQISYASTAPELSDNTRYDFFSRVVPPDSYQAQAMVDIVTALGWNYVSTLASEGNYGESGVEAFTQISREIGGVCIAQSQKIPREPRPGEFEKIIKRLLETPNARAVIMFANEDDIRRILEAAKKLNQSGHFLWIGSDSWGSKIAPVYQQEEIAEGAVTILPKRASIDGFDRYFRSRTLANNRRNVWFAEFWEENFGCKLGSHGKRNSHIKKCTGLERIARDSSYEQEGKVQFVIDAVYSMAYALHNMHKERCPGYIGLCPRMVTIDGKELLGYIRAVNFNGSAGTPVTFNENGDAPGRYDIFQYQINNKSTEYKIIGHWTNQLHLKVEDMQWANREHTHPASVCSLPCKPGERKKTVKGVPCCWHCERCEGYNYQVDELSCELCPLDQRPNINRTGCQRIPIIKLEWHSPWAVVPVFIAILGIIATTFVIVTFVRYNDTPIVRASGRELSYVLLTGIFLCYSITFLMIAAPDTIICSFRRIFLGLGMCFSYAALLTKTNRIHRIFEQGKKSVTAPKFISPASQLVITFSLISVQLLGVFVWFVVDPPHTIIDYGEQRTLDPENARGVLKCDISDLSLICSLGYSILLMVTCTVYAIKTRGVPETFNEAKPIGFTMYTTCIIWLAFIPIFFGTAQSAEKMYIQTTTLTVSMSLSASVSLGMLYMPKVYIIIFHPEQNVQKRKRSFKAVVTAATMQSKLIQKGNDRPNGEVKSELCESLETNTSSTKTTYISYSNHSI

Row | SMILES | z-score
1 | OCCNc1nc(Nc2ccccc2)nc2ccccc12 | -0.158
2 | CCc1nc(NCCCn2ccnc2)c2oc3ccccc3c2n1 | -0.732
3 | Cc1cccc(N2CCN(C(=O)CCn3c(=S)[nH]c4cc5c(cc4c3=O)OCO5)CC2C)c1 (centres undefined) | 0.0286
4 | Cc1cc(OCC(=O)N(C(C)C)C(C)C)cc(C)c1Br | -0.265
5 | Cc1nnc(SCC(=O)NC(=O)NCc2ccco2)n1Cc1ccccc1 | 0.0176
6 | C=CCn1cccc(/C=C/C(=O)c2ccc(C(C)(C)C)cc2)c1=S | 0.0383
7 | COc1cc(/C=C(\C#N)C(=O)Nc2ccc3ccccc3c2)c([N+](=O)[O-])cc1OC | 0.349
8 | O=C(COc1ccc(F)cc1)Nc1ccc(-n2cnnn2)cc1 | -0.0711
9 | Cc1nnc2c3ccccc3c(-c3cccc4ccccc34)nn12 | -1.04
10 | CN(C)/C=C(\C#N)C(=O)c1cccc(Oc2ccc(Br)cc2)c1 | -0.258
11 | CS(=O)(=O)N1CCc2cc(C(=O)N3CCCCC3)ccc21 | 0.267
12 | C=CCn1c(COc2ccc(CC)cc2)nnc1SCC(=O)NC1CCS(=O)(=O)C1 (centres undefined) | -0.512
13 | O=C1CCSc2ccc(Cl)cc2N1Cc1cccc(Cl)c1 | -0.497
14 | COc1nccnc1NS(=O)(=O)c1ccc(NC(=S)NC(=O)/C=C/c2ccccc2)cc1 | -0.279
15 | COc1ccc(CN(C(=O)c2cnccn2)C(C(=O)NC(C)(C)C)c2cc(OC)c(OC)c(OC)c2)cc1 (centres undefined) | -0.221
16 | COc1ccc(-c2cc(C(=O)NN)[nH]n2)cc1 | -0.174
17 | C/C(CC(=O)Nc1cccc2c1CCCC2)=N\NC(=O)c1ccccc1N | 2.22
18 | O=C1C(C2=NC(C(=O)O)C3C(=O)N(c4ccccc4)C(=O)C23)=C(O)c2ccccc21 (centres undefined) | 0.46
19 | N=c1n(CC(=O)c2ccc([N+](=O)[O-])cc2)c2ccccc2n1Cc1ccccc1Cl | 0.471
20 | CC(CC(=O)c1cccs1)CC(=O)c1cccs1 | -0.476
21 | CCC(=O)c1ccc(OCC(O)CN2CCCCC2)cc1 (centres undefined) | -0.105
22 | O=C(NC1CC2CCCC(C1)N2C(=O)Nc1ccccc1)c1ccncc1 (centres undefined) | -0.146
23 | CN(c1ccccc1C(=O)N1CCN(c2ccccc2)CC1)S(C)(=O)=O | 0.478

Row | SMILES | z-score
24 | CCn1c(SCC(=O)NNC(=S)Nc2ccc(C)cc2)nnc1-c1ccc(Cl)cc1 | -0.351
25 | Cc1ccc(-c2nc(S(=O)(=O)c3ccc(F)cc3)c(SCC(=O)NCC3CCCO3)o2)cc1 (centres undefined) | -0.32
26 | CN(C)CC(O)COc1cccc(OCC(O)CN(C)C)c1 (centres undefined) | -0.132
27 | Fc1ccc(CSc2nnc(-c3cccs3)o2)cc1 | 0.789
28 | C/C(=N\NC(=O)c1c(Cl)c(C)nn1C)c1ccc(NC(=O)c2ccncc2)cc1 | 0.016
29 | CC(C)n1c(O)c(N=NC(=O)c2ccccc2NS(=O)(=O)c2cccs2)c2ccccc21 | -0.411
30 | C=CCC(C)(NCc1ccccc1)c1ccc(C)cc1 (centres undefined) | 0.0269
31 | CN(C)C(=O)COc1ccc2ccc(=O)oc2c1 | -0.168
32 | Cc1ccc(NC(=S)Nc2ccc(Cl)c(Cl)c2)c(OC(F)F)c1 | active: 5.16
33 | Cc1cc(C(=O)N/N=C/c2cccc([N+](=O)[O-])c2)c(C)n1-c1ccccc1 | -0.213
34 | COc1ccc2c(c1)c(=O)oc1cc(OCC(=O)N3CCCC(C)C3)ccc12 (centres undefined) | -0.0927
35 | CC(=O)N1N=C(c2cccc([N+](=O)[O-])c2)OC1c1ccccc1Cl (centres undefined) | -0.453
36 | Cc1cc(NC(=O)CSc2nc3ccccc3[nH]2)no1 | 0.304
37 | CCN(CC)C(=O)C(=O)N/N=C/c1cccs1 | -0.0972
38 | Cc1c(C(=O)NCc2cccnc2)oc2ccc(S(=O)(=O)N3CCCCC3)cc12 | 1.3
39 | COc1cc(NC(=O)/C=C/c2ccccc2[N+](=O)[O-])cc(OC)c1 | 1.28
40 | O=C(CSc1cn(CCNC(=O)c2ccccc2)c2ccccc12)NCc1ccco1 | -0.331
41 | CCCCOC(=O)c1cc(=O)[nH]c2ccccc12 | -0.426
42 | O=C(CSc1nnc(CCCO)n1-c1ccccc1)NCCc1ccccc1 | -0.0197
43 | O=C(Nc1ccccc1)NC1CS(=O)(=O)CC1O (centres undefined) | 0.265
44 | Cc1ccccc1N1CCN(c2ncnc3scc(-c4cccs4)c23)CC1 | 0.199
45 | CCOC(=S)SCC(=O)N1CCc2cc(OC)c(OC)cc2C1C1C(=O)CC(C)(C)CC1=O (centres undefined) | -0.189
46 | C=CCNc1nc(N)c(C(=C(C#N)C#N)c2ccccc2)s1 | 0.741

Row | SMILES | z-score
47 | COc1ccc(NC(=S)Nc2cc(S(=O)(=O)N3CCCCC3)ccc2OC)cc1 | 0.0265
48 | CC12CCC(C(=O)NCc3ccccc3)(OC1=O)C2(C)C (centres undefined) | -0.541
49 | CSCC[C@@H](Nc1nc(-c2ccccc2)nc2c1oc1ccccc12)C(=O)O | -2.48
50 | COCC(=O)OCC(=O)Nc1cc(C(C)(C)C)nn1-c1ccccc1 | -0.0932
51 | Cc1ccc(C(=O)N/C(=C\c2cccc([N+](=O)[O-])c2)C(=O)OCN2C(=O)c3ccccc3C2=O)cc1 | -0.447
52 | CC(=O)c1[nH]c(C)c(C(C)=O)c1C | -0.449
53 | CCOC(=O)C1=C(C)NC(SCC(N)=O)=C(C#N)C1c1ccncc1 (centres undefined) | -0.0596
54 | Cc1ccccc1-c1cc(-c2ccccc2O)on1 | -0.494
55 | Cc1ccc(-c2n[nH]c(=S)n2/N=C/c2cccn2C)cc1 | 1.02
56 | COc1ccc(S(=O)(=O)NN=C2CCCC2)cc1 | -0.0847
57 | CCC(=O)Nc1cccc(NC(=S)NC(=O)c2ccc(Cl)cc2)c1 | 0.0573
58 | Cc1ccc2[nH]c(=O)c3cc(C(=O)N4CCN(C(=O)c5ccco5)CC4)sc3c2c1 | -0.867
59 | COc1ccc(NC(=O)CSCC(=O)N2c3ccccc3CCc3ccccc32)cc1 | -0.15
60 | CCOC(=O)C1=C(C(F)(F)F)Nc2ncnn2C1c1ccc(OC)c(OC)c1OC (centres undefined) | 0.0602
61 | O=c1c(-c2ccc(Cl)cc2)[n+]([O-])c2ccccc2n1OCc1ccccn1 | -0.125
62 | O=C(CN1CCCCC1)Nc1ccccc1-c1ccccc1 | -1.09
63 | COc1ccc(NS(=O)(=O)c2ccc3nc(COc4cccc5ccccc45)[nH]c3c2)cc1 | -0.0403
64 | COc1ccc(N=Cc2c[nH][nH]c2=O)cc1 | -0.194
65 | CNC(=S)N/N=C/c1cc(Br)cc(Br)c1O | 1.79
66 | CN=C1SC(CC(=O)Nc2ccc(C(C)=O)cc2)C(=O)N1C (centres undefined) | -0.153
67 | COc1ccc(NC2CCN(C3CC(=O)N(c4ccc(F)c(Cl)c4)C3=O)CC2)cc1 (centres undefined) | 0.635
68 | Cc1nc(-c2cccc(S(=O)(=O)N3CC(C)CC(C)C3)c2)cs1 (centres undefined) | -0.269
69 | O=C(COC(=O)c1sc2cc(F)ccc2c1Cl)Nc1ncc(Cl)cc1Cl | -0.0268
